From the antibiotic and cytotoxicity screens of Wong et al. (2023)
This is one part of the list.

Tests used:
[1] = test system: HSkMC (human skeletal muscle cells); test: cytotoxicity call (relative viability < 0.9); details: 10 µM
[2] = test system: HepG2; test: cytotoxicity call (relative viability < 0.9); details: 10 µM
[3] = test system: S. aureus RN4220; test: growth inhibition call (relative growth <= 0.2); details: 50 µM

SMILES	cytotoxicity call [1]	cytotoxicity call [2]	growth inhibition call [3]
C[C@@H]1CN([C@@H](C)CO)C(=O)c2cc(NC(=O)Cn3cnnn3)ccc2O[C@@H]1CN(C)S(=O)(=O)c1ccccc1	inactive	inactive	inactive
Cc1ccc(S(=O)(=O)N(C)C[C@H]2Oc3ccc(NS(=O)(=O)c4ccccc4)cc3C(=O)N([C@@H](C)CO)C[C@@H]2C)cc1	inactive	inactive	inactive
Cc1cc(C(=O)Nc2cccc3c2O[C@@H](CN(C)S(=O)(=O)c2cn(C)cn2)[C@H](C)CN([C@@H](C)CO)C3=O)n(C)n1	inactive	inactive	inactive
C[C@@H]1CN([C@@H](C)CO)S(=O)(=O)c2ccc(C3=CCCC3)cc2O[C@@H]1CN(C)C(=O)Cc1ccncc1	inactive	inactive	inactive
C[C@@H]1CCCCO[C@@H](CN(C)S(=O)(=O)c2ccccc2)[C@H](C)CN([C@@H](C)CO)C(=O)c2cc(NC(=O)Nc3ccc(C(F)(F)F)cc3)ccc2O1	inactive	inactive	inactive
C[C@@H]1CN([C@@H](C)CO)C(=O)c2cc(NC(=O)CCCN(C)C)ccc2O[C@@H](C)CCCCO[C@@H]1CN(C)Cc1ccc(C(F)(F)F)cc1	inactive	inactive	inactive
COc1ccc(NC(=O)N(C)C[C@@H]2OCCCC[C@H](C)Oc3ccc(NC(=O)Nc4ccc5c(c4)OCO5)cc3C(=O)N([C@H](C)CO)C[C@@H]2C)cc1	inactive	inactive	inactive
C[C@@H]1CN([C@@H](C)CO)C(=O)c2cc(NC(=O)CCC(F)(F)F)ccc2O[C@@H]1CN(C)C(=O)Nc1ccc(C(F)(F)F)cc1	inactive	inactive	inactive
CO[C@@H]1CN(C)C(=O)c2ccc(NC(=O)c3ccc(F)cc3)cc2OC[C@@H](C)N(C(=O)CN(C)C)C[C@H]1C	inactive	inactive	inactive
O=C(C[C@@H]1CC[C@@H]2[C@H](COC[C@H](O)CN2S(=O)(=O)c2ccccc2)O1)N[C@@H]1CCN(Cc2ccccc2)C1	inactive	inactive	inactive
C[C@H](CO)N1C[C@H](C)[C@H](CN(C)C(=O)Nc2ccc3c(c2)OCO3)Oc2ccc(NC(=O)Nc3ccc(C(F)(F)F)cc3)cc2C1=O	inactive	inactive	inactive
C[C@H](CO)N1C[C@H](C)[C@@H](CN(C)Cc2ccc(Cl)c(Cl)c2)Oc2c(NS(=O)(=O)c3ccc(F)cc3)cccc2C1=O	inactive	inactive	inactive
CC(=O)OC1CC(OC(C)=O)C2(C)C(CC(OC(C)=O)C3(C)C2CCC2(C)C(c4ccoc4)OC(=O)C4OC423)C1(C)C (centres undefined)	inactive	inactive	inactive
COc1ccc(NC(=O)N(C)C[C@@H]2OCCCC[C@@H](C)Oc3ccc(NC(=O)Nc4c(C)noc4C)cc3C(=O)N([C@H](C)CO)C[C@@H]2C)cc1	inactive	inactive	inactive
C[C@@H]1CCCCO[C@H](CN(C)C(=O)c2ccncc2)[C@H](C)CN([C@H](C)CO)C(=O)c2cc(NC(=O)C3CCCCC3)ccc2O1	inactive	inactive	inactive
C[C@H]1CN([C@@H](C)CO)C(=O)Cc2cc(NC(=O)Nc3cccc4ccccc34)ccc2O[C@@H]1CN(C)C(=O)Nc1ccccc1	inactive	inactive	inactive
C[C@@H]1CN([C@@H](C)CO)C(=O)c2cc(NC(=O)C3CCCCC3)ccc2O[C@@H]1CN(C)Cc1ccc(C(F)(F)F)cc1	inactive	inactive	inactive
CCO[C@@H]1OC(C(=O)N2CCN(Cc3ccc4c(c3)OCO4)CC2)=C[C@H](c2ccc(Br)cc2)[C@H]1CCCOC(=O)NCCCCCC(=O)NO	inactive	inactive	inactive
CCC[C@@H]1C[C@@H](C(=O)N[C@@H]([C@H]2O[C@H](SC)[C@H](O)[C@@H](O)[C@H]2O)[C@@H](C)O)N(C)C1	inactive	inactive	active
COc1ccc(CN2C[C@@H](C)[C@H](OC)CN(C)C(=O)c3cc(NC(=O)c4nc5ccccc5s4)ccc3OC[C@@H]2C)cc1	inactive	active	inactive
C[C@@H]1CN([C@H](C)CO)C(=O)c2cc(NS(=O)(=O)c3cccs3)ccc2O[C@@H]1CN(C)Cc1ccc(Cl)c(Cl)c1	inactive	inactive	inactive
C[C@@H]1CN([C@@H](C)CO)C(=O)c2cc(NS(=O)(=O)c3cccs3)ccc2O[C@@H](C)CCCCO[C@@H]1CN(C)C(=O)Nc1cccc2ccccc12	inactive	inactive	inactive
C[C@@H]1CN([C@@H](C)CO)C(=O)c2cc(NC(=O)Nc3ccc(F)cc3)ccc2O[C@@H](C)CCCCO[C@@H]1CN(C)C(=O)CCCN(C)C	inactive	inactive	inactive
